Measured values: article PMC12299477 (Viruses, 2025)

How the values were obtained:
RSV-A2 = test: Virus inhibition assay (plaque reduction), RSV-A2 on Hep-2 cells; assay type: cell-based; conditions: human respiratory syncytial virus, HEp-2, 72 h, treatment before, during and after infection, read-out: Residual Virus Infectivity (%) RSV-A2
HCoV-OC43 = test: Virus inhibition assay (focus reduction), HCoV-OC43 on MRC-5 cells; assay type: cell-based, human coronavirus; conditions: Betacoronavirus 1, OC43, MRC5, 20 h, treatment before, during and after infection, read-out: Residual Virus Infectivity (%) HCoV-OC43
IFV-A H1N1 = test: Virus inhibition assay (focus reduction), IFV-A H1N1 on MDCK cells; assay type: cell-based; conditions: Influenza A virus, 20 h, read-out: Residual Virus Infectivity (%) IFV-A H1N1

| Structure (SMILES) | activity at 0.3 µM (RSV-A2) [%] | activity at 3 µM (RSV-A2) [%] | activity at 0.3 µM (HCoV-OC43) [%] | activity at 3 µM (HCoV-OC43) [%] | activity at 33 µM (HCoV-OC43) [%] | activity at 0.3 µM (IFV-A H1N1) [%] | activity at 3 µM (IFV-A H1N1) [%] | activity at 33 µM (IFV-A H1N1) [%] | activity at 33 µM (RSV-A2) [%] |
| --- | --- | --- | --- | --- | --- | --- | --- | --- | --- |
| CC(C)(CC(=O)O)NC(=O)c1cc(-c2ccccc2)c(=O)n2c1sc1ccc(OC3CCCCC3)cc12 [Compound 1] | 38 | 20 | 100 | 73 | 0 | 100 | 56 | 2 |  |
| COc1ccc(-c2cc(C(=O)N[C@@H](Cc3ccc(O)cc3)C(=O)O)c3sc4ccc(OC5CCCCC5)cc4n3c2=O)cc1F [Compound 2] |  |  |  |  |  | 100 | 100 | 100 |  |
| O=C(NCc1ccccc1)c1cc(-c2ccccc2)c(=O)n2c1sc1ccc(OC3CCCCC3)cc12 [Compound 3] |  |  | 83 | 75 | 68 | 100 | 100 | 78 |  |
| O=C(NCC1(C(=O)O)CC1)c1cc(-c2ccccc2)c(=O)n2c1sc1ccc(OC3CCCCC3)cc12 [Compound 4] | 63 | 57 | 74 | 55 |  | 100 | 100 | 42 |  |
| O=C(N[C@@H](Cc1ccc(O)cc1)C(=O)O)c1cc(-c2ccccc2)c(=O)n2c1sc1cc(OC3CCCCC3)ccc12 [Compound 5] | 73 | 71 | 88 | 81 |  | 100 | 100 | 100 |  |
| O=C(O)CC(NC(=O)c1cc(-c2ccccc2)c(=O)n2c1sc1ccc(OC3CCCCC3)cc12)c1ccccc1 (centres unmarked) [Compound 6] | 76 |  | 87 | 84 |  | 100 | 100 | 38 |  |
| C[C@H](CO)NC(=O)c1cc(-c2ccccc2)c(=O)n2c1sc1ccc(OC3CCCCC3)cc12 [Compound 7] | 80 |  | 57 | 63 |  | 100 | 83 |  |  |
| O=C(N[C@@H](CO)C(=O)O)c1cc(-c2ccccc2)c(=O)n2c1sc1ccc(OC3CCCCC3)cc12 [Compound 8] |  |  | 100 | 88 | 47 | 100 | 100 | 94 |  |
| O=C(N[C@@H](Cc1ccc(O)cc1)C(=O)O)c1cc(-c2ccc(Cl)cc2)c(=O)n2c1sc1ccc(OC3CCCCC3)cc12 [Compound 9] | 96 | 89 | 81 | 27 | 0 | 100 | 98 | 50 |  |
| O=C(O)CCNC(=O)c1cc(-c2ccccc2)c(=O)n2c1sc1ccc(OC3CCCCC3)cc12 [Compound 10] | 100 | 85 | 98 | 75 | 12 | 100 | 100 | 100 |  |
| O=C(c1cc(-c2ccccc2)c(=O)n2c1sc1ccc(OC3CCCCC3)cc12)N1CCC[C@@H](O)C1 [Compound 11] | 62 |  | 100 | 43 |  | 100 | 49 |  |  |
| NC(=O)CCNC(=O)c1cc(-c2ccccc2)c(=O)n2c1sc1ccc(OC3CCCCC3)cc12 [Compound 12] | 96 | 91 | 100 | 97 | 94 | 100 | 93 | 62 |  |
| O=C(NCc1ccc(O)cc1)c1cc(-c2ccccc2)c(=O)n2c1sc1ccc(OC3CCCCC3)cc12 [Compound 13] |  |  |  |  |  | 100 | 100 | 62 |  |
| O=C(N[C@@H](Cc1ccc(O)cc1)C(=O)O)c1cc(-c2ccc(F)cc2)c(=O)n2c1sc1ccc(OC3CCCCC3)cc12 [Compound 14] | 100 | 99 | 85 | 22 | 0 | 100 | 100 | 84 |  |
| O=C(N[C@@H](Cc1ccc(O)cc1)C(=O)O)c1cc(-c2ccccc2F)c(=O)n2c1sc1ccc(OC3CCCCC3)cc12 [Compound 15] |  |  | 81 | 70 | 41 | 100 | 100 | 100 |  |
| O=C(N[C@@H](Cc1ccc(O)cc1)C(=O)O)c1cc(-c2cccc(F)c2)c(=O)n2c1sc1ccc(OC3CCCCC3)cc12 [Compound 16] | 100 | 100 | 87 | 70 | 5 | 100 | 100 | 100 | 19 |
| O=C(N[C@@H](Cc1ccc(O)cc1)C(=O)O)c1cc(-c2ccccc2)c(=O)n2c1sc1ccc(OC3CCCC3)cc12 [Compound 17] | 81 | 51 | 100 | 67 | 40 | 100 | 100 | 100 |  |
| CC(C)C(CC(=O)O)NC(=O)c1cc(-c2ccccc2)c(=O)n2c1sc1ccc(OC3CCCCC3)cc12 (centres unmarked) [Compound 19] | 73 | 22 | 92 | 48 |  | 100 | 45 |  |  |
| O=C(O)C1CCN(C(=O)c2cc(-c3ccccc3)c(=O)n3c2sc2ccc(OC4CCCCC4)cc23)C1 (centres unmarked) [Compound 20] |  |  | 100 | 59 | 41 | 100 | 100 | 100 |  |
| CC(CC(=O)O)NC(=O)c1cc(-c2ccccc2)c(=O)n2c1sc1ccc(OC3CCCCC3)cc12 (centres unmarked) [Compound 21] | 100 | 56 | 76 | 49 |  | 100 | 100 |  |  |
| CCN(CC)CCOc1ccc(-c2cc(C(=O)Oc3ccc(S(N)(=O)=O)cc3)c3sc4ccc(OC5CCCCC5)cc4n3c2=O)cc1 [Compound 22] | 99 | 68 | 69 | 40 |  | 100 | 100 |  |  |
| NS(=O)(=O)c1ccc(OC(=O)c2cc(-c3ccccc3)c(=O)n3c2sc2ccc(OC4CCCCC4)cc23)cc1 [Compound 23] | 100 | 100 | 100 | 100 | 81 | 100 | 73 | 52 |  |
| NS(=O)(=O)c1ccc(OC(=O)c2ccc(=O)n3c2sc2ccc(OC4CCCCC4)cc23)cc1 [Compound 24] | 75 | 64 | 100 | 67 |  | 100 | 44 |  |  |
| O=C(N[C@@H](Cc1ccc(O)cc1)C(=O)O)c1cc(-c2cccs2)c(=O)n2c1sc1ccc(OC3CCCCC3)cc12 [Compound 25] | 89 | 85 | 49 | 7 | 0 | 89 | 85 | 18 |  |
| O=C(N[C@@H](Cc1ccccc1)C(=O)O)c1cc(-c2ccccc2)c(=O)n2c1sc1ccc(OC3CCCCC3)cc12 [Compound 26] | 100 | 53 | 79 | 64 |  | 100 | 100 | 83 |  |
| O=C(N[C@@H](Cc1ccc(O)cc1)C(=O)O)c1ccc(=O)n2c1sc1ccc(OC3CCCCC3)cc12 [Compound 27] | 100 | 100 | 100 | 92 | 17 | 100 | 99 | 81 | 100 |
| CCN(CC)CCOc1ccc2sc3c(C(=O)Oc4ccc(S(N)(=O)=O)cc4)cc(-c4ccccc4)c(=O)n3c2c1 [Compound 28] | 100 | 97 | 32 | 0 |  | 100 | 83 |  |  |
| NS(=O)(=O)c1ccc(OC(=O)c2cc(NCCN3CCOCC3)c(=O)n3c2sc2ccc(OC4CCCCC4)cc23)cc1 [Compound 29] | 100 | 67 | 100 | 100 |  | 100 | 100 |  |  |
